Reference: PubChem BioAssay (NCATS)
The list shows a part of the results. The main result of the screen is listed elsewhere. These columns were measured beside it and carry no call. Most of these compounds were active or inconclusive in the main read-out, so they are no random draw. Words in brackets tell the shape of the fitted curve; partial curves, single points and poor fits give uncertain potencies.

What follows are compounds tested against Phenylethanolamine N-methyltransferase (Homo sapiens) (UniProt P11086) (assay: Confirmatory Screen for Target Class Profiling of Small Molecule Inhibitors of Methyltransferases (AID 1745852;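 further: inhibitor potency for blocking SAH production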)). Conditions: MTase-Glo luminescence, SAH detection, recombinant enzyme; measured here: PNMT inhibition potency.
Chain of UniProt P11086 (P11086 whole entry, looked up): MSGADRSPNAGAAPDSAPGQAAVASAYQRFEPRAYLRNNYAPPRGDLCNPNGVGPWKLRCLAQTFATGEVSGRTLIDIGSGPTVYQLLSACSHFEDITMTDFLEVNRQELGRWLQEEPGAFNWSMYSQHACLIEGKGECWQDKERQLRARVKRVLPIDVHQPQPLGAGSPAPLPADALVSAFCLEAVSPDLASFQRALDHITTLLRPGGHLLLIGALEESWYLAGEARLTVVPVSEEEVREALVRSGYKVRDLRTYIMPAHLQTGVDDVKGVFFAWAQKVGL
Tags describe the fitted curve by direction and shape.

Compound	IC50
CC1CC(C)CN(S(=O)(=O)c2ccc3c(c2)oc(=O)n3CC(=O)Nc2cccc(F)c2)C1 (stereo not given)	15.2 µM [falling, partial curve]
CC1CC(C)CN(S(=O)(=O)c2ccc3c(c2)oc(=O)n3CC(=O)Nc2ccc(Cl)cc2)C1 (stereo not given)	6.07 µM [falling, partial curve]
Cc1ccsc1CCNC(=O)Cn1c(=O)oc2cc(S(=O)(=O)N3CCCC3)ccc21	12.1 µM [falling, partial curve]
COc1ccccc1OCCNCC(O)CCOc1cccc2[nH]c3ccccc3c12 (stereo not given)	3.83 µM [falling, full curve]
NS(=O)(=O)OC[C@@H]1C[C@@H](n2ccc3c(N[C@H]4CCc5ccccc54)ncnc32)C[C@@H]1O	17.1 µM [falling, partial curve]
CCOC(=O)C1CCCN(S(=O)(=O)c2ccc3[nH]c(=O)[nH]c3c2)C1 (stereo not given)	21.5 µM [falling, partial curve]
CN1CCN(C2CCC(n3cc(-c4ccc(Oc5ccccc5)cc4)c4c(N)ncnc43)CC2)CC1 (stereo not given)	17.1 µM [falling, partial curve]
COc1cccc(NC(=O)Cn2c(=O)oc3cc(S(=O)(=O)N4CCCCC4C)ccc32)c1 (stereo not given)	21.5 µM [falling, partial curve]
O=C1c2ccccc2C(=O)c2cc(S(=O)(=O)N(CCO)CCO)ccc21	12.1 µM [falling, partial curve]
CCc1cccc(NC(=O)Cn2c(=O)oc3cc(S(=O)(=O)N4CC(C)CC(C)C4)ccc32)c1 (stereo not given)	7.64 µM [falling, full curve]
